Laboratory results as given in PubChem BioAssay AID1645887 (National Center for Advancing Translational Sciences (NCATS), 2021).
Several values for one entry are separate records, joined by “and”; a condition that tells them apart may be missing. Equal values may be shown once. About 40 (0.2%) of roughly 16,000 compounds were called active. Not shown: some 1% with an inconclusive outcome. The call rests on the fitted dose curve; in most records, active means well fitted activation curve with a large enough effect; inconclusive means small, poorly fitted or top-dose-only effect, or another doubt; inactive means no such curve, though single readings can be large or run the other way. The list shows a part of the results.

These molecules were tested against Rap guanine nucleotide exchange factor 4 (Homo sapiens) (UniProt Q8WZA2) (assay: Validation qHTS for agonist of cAMP-regulated guanine nucleotide exchange factor 4 (EPAC2)). Details: EPAC2 Rap1B BODIPY-GDP exchange, fluorescence; activation: active compounds read high.
UniProt Q8WZA2, sequence (Q8WZA2 whole entry, looked up): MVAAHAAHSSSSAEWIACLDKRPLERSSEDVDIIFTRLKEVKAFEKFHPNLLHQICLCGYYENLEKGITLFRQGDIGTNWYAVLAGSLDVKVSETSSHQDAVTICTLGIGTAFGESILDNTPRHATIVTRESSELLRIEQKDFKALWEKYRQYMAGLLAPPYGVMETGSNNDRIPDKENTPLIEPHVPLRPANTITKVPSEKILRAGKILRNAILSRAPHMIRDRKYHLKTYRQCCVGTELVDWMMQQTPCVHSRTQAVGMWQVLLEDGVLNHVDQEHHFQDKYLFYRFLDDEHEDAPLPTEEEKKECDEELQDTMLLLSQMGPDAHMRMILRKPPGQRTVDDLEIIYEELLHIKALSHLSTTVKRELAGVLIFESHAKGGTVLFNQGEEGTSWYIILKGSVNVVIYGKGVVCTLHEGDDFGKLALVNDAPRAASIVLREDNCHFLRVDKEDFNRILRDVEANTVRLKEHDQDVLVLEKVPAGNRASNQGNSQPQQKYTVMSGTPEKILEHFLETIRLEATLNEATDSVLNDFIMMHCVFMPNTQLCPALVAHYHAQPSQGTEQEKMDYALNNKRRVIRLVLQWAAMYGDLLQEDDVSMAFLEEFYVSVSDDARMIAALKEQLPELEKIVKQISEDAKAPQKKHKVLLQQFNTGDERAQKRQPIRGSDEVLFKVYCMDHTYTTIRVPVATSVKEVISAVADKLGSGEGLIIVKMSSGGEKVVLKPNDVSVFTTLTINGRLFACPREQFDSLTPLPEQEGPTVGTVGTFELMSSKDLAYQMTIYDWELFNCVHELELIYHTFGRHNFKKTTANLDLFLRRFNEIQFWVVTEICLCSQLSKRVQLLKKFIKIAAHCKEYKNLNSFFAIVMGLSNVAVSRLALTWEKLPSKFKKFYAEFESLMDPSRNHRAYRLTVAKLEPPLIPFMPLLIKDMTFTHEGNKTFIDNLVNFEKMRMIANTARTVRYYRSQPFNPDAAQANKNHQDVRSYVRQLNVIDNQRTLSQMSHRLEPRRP
Procedure, shortened: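 Fluorescent exchange assay: 100 nM EPAC2 with 250 nM RAP1B-BODIPY-GDP and 50 uM GDP; compound added, 5 min at room temperature, then read (ex 480/em 540 nm) every 5 min for 30 min. Normalized to 6.5 mM cAMP agonist control.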
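Further: exchange makes BODIPY-GDP fluorescence drop when released from Rap1B; series mostly up to about 150 µM.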
On the % scale 0 is the no-effect control and ±100 the full control effect.

activation, inactive:
CCN(CC)c1ncnc2c1ncn2[C@@H]1O[C@H](COP(=O)(O)OP(=O)(O)C(Br)(Br)P(=O)(O)O)[C@@H](O)[C@H]1O -23.9%
CC(/C=C/c1cccc(Oc2ccc(F)cc2)c1)N(O)C(N)=O (stereo not drawn) -10.1% and -37.8%
O=c1c(O)c(-c2ccc(O)cc2O)oc2cc(O)cc(O)c12 -3.99% and 21.7% and -3.76%
Cc1cnc(CNc2ccnc(-c3ccccc3C)n2)cn1 -7.88%
CC(C)c1c(C(=O)NCCN2CCOCC2)cnn1-c1nccc(-c2cccs2)n1 -6.66%
CCNc1ncc2nc(-c3ccccc3)c(=O)n(Cc3cccc(OC)c3)c2n1 -9.22%
COC(=O)c1cc(CNC(=O)c2ccc3ncccc3c2)cc(NC(=O)c2ccccc2Cl)c1 -17.5%
COc1ccc(CNc2nc(-c3ccc4c(c3)OCO4)nc3ccccc23)c(OC)c1 18.5%
COCCNc1nc(-c2ccccc2C(F)(F)F)nc2ccccc12 -4.15%
N#CCCn1c(=O)c(CCc2ccccc2)nc2cnc(Oc3cccc(Cl)c3)nc21 -3.83%
COc1cccc(-c2ccc3ncnc(N(C)Cc4ccco4)c3c2)c1 -7.2%
CS(=O)(=O)c1ccc(-c2cccc3c2OC(CNC(=O)c2ccnc(Cl)c2)C3)cc1 (stereo not drawn) -3.8%
CCCCCCCCCCCC[N+](C)(C)Cc1ccccc1 -9.9%
O=C1CC(c2ccc(O)c(O)c2)Oc2cc(O)cc(O)c21 (stereo not drawn) -4.54%
COc1cccc(Cn2c(=O)cnc3cnc(Nc4ccccc4)nc32)c1 -56.7%
Cc1cccnc1-c1cccc2c1OC(CNC(=O)Cc1c(C)noc1C)C2 (stereo not drawn) -18.6%
CCOC(=O)[C@H](CCc1ccccc1)N[C@H]1CS[C@H](c2cccs2)CN(CC(=O)O)C1=O 7.82%
CCCCC[C@H]1CN(Cc2ccccc2)C(=O)[C@@H]1CC(=O)NCc1ccc(OC)cc1 -33.7%
O=C1NC(=O)/C(=C/c2ccc3nccnc3c2)S1 -19.3%
Oc1ccc2c(c1)OC(c1ccc(O)c(O)c1)C(O)C2 (stereo not drawn) -37%
NC(N)=NN=C(/C=C/c1ccc([N+](=O)[O-])o1)/C=C/c1ccc([N+](=O)[O-])o1 27%
CN1CCCN(C(=O)[C@@H]2C[C@@H](Sc3nc4ccccc4[nH]3)CN2Cc2ccc(-c3ccccc3)cc2)CC1 -0.104%
c1ccc(-c2cccc(N3CCC4(CCNCC4)CC3)c2)cc1 -12.5%
